{
  "source": "PubChem BioAssay (NCATS)",
  "key": {"[1]": {"test": "qHTS of pediatric cancer cell lines to identify multiple opportunities for drug repurposing: Primary screen for DAOY cells (AID 1347090); note: nearly all actives have a fitted effect of over 55% in size", "method_in_brief": "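Cell viability, CellTiter-Glo luminescence; 500-1,000 cells/well, 8- or 11-point titration, 48 h compound exposure at 37 degrees C, 5% CO2. Controls: DMSO neutral, bortezomib 2.3 µM final as positive.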"}, "[2]": {"test": "qHTS of pediatric cancer cell lines to identify multiple opportunities for drug repurposing: Primary screen for A673 cells (AID 1347092); note: nearly all actives have a fitted effect of over 45% in size", "method_in_brief": "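Titration-based qHTS on A673 cells: MIPE compounds spanned 11 points (0.78 nM to 46 µM final), NPC compounds 8 points (0.59 nM to 46 µM final). Viability after 48 h was measured by ATP luminescence.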"}, "[3]": {"test": "qHTS of pediatric cancer cell lines to identify multiple opportunities for drug repurposing: Primary screen for SK-N-MC cells (AID 1347093)"}, "[4]": {"test": "qHTS of pediatric cancer cell lines to identify multiple opportunities for drug repurposing: Primary screen for BT-37 cells (AID 1347094)", "method_in_brief": "(§1)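 Readout: CellTiter-Glo luminescence, 48 h treatment. Controls DMSO (neutral) and bortezomib 2.3 µM final (positive). Potency and efficacy taken from primary-screen concentration-response curves.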"}, "[5]": {"test": "qHTS of pediatric cancer cell lines to identify multiple opportunities for drug repurposing: Primary screen for SK-N-SH cells (AID 1347098)", "method_in_brief": "(§2)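 Cells (500-1,000/well) rested 5 h, then received compounds for 48 h; metabolically active cells were measured by CellTiter-Glo luminescence. Final concentrations spanned up to 46 µM (MIPE, 11-point) or 0.59 nM-46 µM (NPC, 8-point) in primary screens, 11-point in follow-ups.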"}, "[6]": {"test": "qHTS of pediatric cancer cell lines to identify multiple opportunities for drug repurposing: Primary screen for NB1643 cells (AID 1347099)"}, "[7]": {"test": "qHTS of pediatric cancer cell lines to identify multiple opportunities for drug repurposing: Primary screen for LAN-5 cells (AID 1347100)", "method_in_brief": "as §2"}, "[8]": {"test": "qHTS of pediatric cancer cell lines to identify multiple opportunities for drug repurposing: Primary screen for Rh18 cells (AID 1347102)", "method_in_brief": "as §2"}, "[9]": {"test": "qHTS of pediatric cancer cell lines to identify multiple opportunities for drug repurposing: Primary screen for OHS-50 cells (AID 1347103)", "method_in_brief": "as §2"}, "[10]": {"test": "qHTS of pediatric cancer cell lines to identify multiple opportunities for drug repurposing: Primary screen for RD cells (AID 1347104)", "method_in_brief": "as §1"}, "[11]": {"test": "qHTS of pediatric cancer cell lines to identify multiple opportunities for drug repurposing: Primary screen for MG 63 (6-TG R) cells (AID 1347105)", "method_in_brief": "as §1"}, "[12]": {"test": "qHTS of pediatric cancer cell lines to identify multiple opportunities for drug repurposing: Primary screen for Rh41 cells (AID 1347108)", "method_in_brief": "as §1"}},
  "note": "Records with an inconclusive call do not appear. Calls come from the whole dose curve; as a rule, active = well fitted curve in the direction sought with a large enough effect; inconclusive = small, poorly fitted or top-dose-only effect, or another doubt; inactive = no such curve, though single readings can be large; an effect the other way counts as inactive or inconclusive. Some compounds were tested as several samples or in several runs, with calls that do not always agree. Some entries of the source have several records that differ or are many. This list holds those alone. An entry can have further records. Results that share an entry repeat one measurement (runs, samples, wells, individuals or studies). A tag in brackets gives the origin of a value. A, B and so on number the origins entry by entry. Potency is the fitted concentration of half-maximal effect.",
  "data": [
    {"smiles": "COc1cc2c(Nc3ccc(Br)cc3F)ncnc2cc1OCC1CCN(C)CC1", "values": [
      {"measurement": "Potency", "setting": "[1]", "value": "active: 18.7 µM [sample A] and inactive [sample B]"},
      {"measurement": "Potency", "setting": "[2]", "value": "active: 18.7 µM [sample A] and inactive [sample B]"},
      {"measurement": "Potency", "setting": "[3]", "value": "active: 18.7 µM [sample A] and inactive [sample B]"},
      {"measurement": "Potency", "setting": "[4]", "value": "active: 9.68 µM [sample A] and inactive [sample B]"},
      {"measurement": "Potency", "setting": "[5]", "value": "active: 24.1 µM [sample A] and inactive [sample B]"},
      {"measurement": "Potency", "setting": "[6]", "value": "active: 18.7 µM [sample A] and inactive [sample B]"},
      {"measurement": "Potency", "setting": "[7]", "value": "active: 18.7 µM [sample A] and inactive [sample B]"},
      {"measurement": "Potency", "setting": "[8]", "value": "active: 18.7 µM [sample A] and inactive [sample B]"},
      {"measurement": "Potency", "setting": "[9]", "value": "active: 21.7 µM [sample A] and inactive [sample B]"},
      {"measurement": "Potency", "setting": "[10]", "value": "active: 16.6 µM [sample A] and inactive [sample B]"},
      {"measurement": "Potency", "setting": "[11]", "value": "active: 18.7 µM [sample A] and inactive [sample B]"},
      {"measurement": "Potency", "setting": "[12]", "value": "active: 20.9 µM [sample A] and inactive [sample B]"}
    ]},
    {"smiles": "COc1ccc(-c2ccc3cc(C(=O)O)ccc3c2)cc1C12CC3CC(CC(C3)C1)C2", "values": [
      {"measurement": "Potency", "setting": "[1]", "value": "inactive [sample A] and active: 7.43 µM [sample B]"},
      {"measurement": "Potency", "setting": "[7]", "value": "active: 3.76 µM [sample A] and inactive [sample B]"}
    ]}
  ]
}
